No constants are given. Whether binding was seen depends on the method and setting. Binding seen in cells or lysates may run through a third protein. Some results given as binding are weak or reduced against the parent protein; the word gives no strength. For some assays here: Sequences can lack the tags named with a protein.
Legend:
Assay in all cases: co-IP; FLAG-tagged bait immunoprecipitated with anti-FLAG M2 agarose beads overnight at 4 °C from RIPA lysates of transfected HEK-293 cells; blots for GFP or HA; cells treated with dopamine (10 μM), quinpirole (100 nM) or isoproterenol (10 μM) for 5 min and washed/rechallenged, or with 10 ng/mL EGF (5 or 20 min, or washed/rechallenged)
FLAG-tagged WT-D2R = FLAG-tagged WT-D2R (UniProt P14416)
FLAG-tagged WT-D3R = FLAG-tagged WT-D3R (UniProt P35462)
FLAG-tagged D4R = target: T1, FLAG-tagged D4R (UniProt P21917)
T1 sequence: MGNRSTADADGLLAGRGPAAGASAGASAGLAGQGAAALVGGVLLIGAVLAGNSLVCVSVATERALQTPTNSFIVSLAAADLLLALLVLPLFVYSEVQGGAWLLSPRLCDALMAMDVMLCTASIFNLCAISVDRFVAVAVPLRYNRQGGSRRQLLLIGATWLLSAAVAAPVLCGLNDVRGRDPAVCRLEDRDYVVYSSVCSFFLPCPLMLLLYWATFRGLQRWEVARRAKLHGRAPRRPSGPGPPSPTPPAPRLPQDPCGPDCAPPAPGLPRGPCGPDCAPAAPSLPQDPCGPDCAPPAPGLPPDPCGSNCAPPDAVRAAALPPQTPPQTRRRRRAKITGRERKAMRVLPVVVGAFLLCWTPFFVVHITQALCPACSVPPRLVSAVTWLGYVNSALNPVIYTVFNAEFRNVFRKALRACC

FLAG-tagged C147K-D3R = FLAG-tagged C147K-D3R (UniProt P35462)
FLAG-tagged K149C-D2R = FLAG-tagged K149C-D2R (UniProt P14416)

binding (FLAG-tagged WT-D2R): no binding | binding (FLAG-tagged WT-D3R): binds | binding (FLAG-tagged D4R): no binding | binding (FLAG-tagged C147K-D3R): no binding | binding (FLAG-tagged K149C-D2R): binds
Substance: EGFR-GFP (from UniProt P00533 25-1210) (receptor)

— PMC11514929
